# Measured values reported in ChEMBL document CHEMBL4699491, “Identification of TNO155, an Allosteric SHP2 Inhibitor for the Treatment of Cancer” (J Med Chem, 2020).
# How the values were obtained:
# physchem [1] = details: buffer, pH 6.8
# physchem [2] = details: octanol/water
# physchem [3] = details: octanol/water; remark: listed apart in the source
SMILES,solubility (physchem [1]) [µM],logP (physchem [2]),logD (physchem [3])
CC1(N)CCN(c2cnc(Sc3ccccc3Cl)c(N)n2)CC1,160,2.4,0.8
CC1(CN)CCN(c2cnc(Sc3cccnc3C(F)(F)F)c(N)n2)CC1,304,1,-1.6
CC1(CN)CCN(c2cnc(-c3cccc(Cl)c3Cl)c(N)n2)CC1,715,,
Nc1nccc(Sc2cnc(N3CCC4(CCC[C@H]4N)CC3)cn2)c1Cl,450,2.7,1.2
Nc1nc(N2CCC3(CCC[C@H]3N)CC2)cnc1Sc1cccnc1C(F)(F)F,668,3,0.3
